From PubChem BioAssay AID720542 (National Center for Advancing Translational Sciences (NCATS), 2013)
Out of some 360,000 compounds screened, about 740 (0.21%) were called active. Inconclusive means that the source gave no clear call. Such entries were picked first, then a sample of the others. Calls follow the shape of the dose curve; as a rule, active = well fitted inhibition curve with a large enough effect; inconclusive = small, poorly fitted or top-dose-only effect; inactive = no such curve, though single readings can be large or run the other way. No potency is given beside an inconclusive call; the fits are too rough.

The molecules below were run on Plasmodium falciparum AMA1 (3D7) - RON2 peptide interaction (assay: qHTS for Inhibitors of AMA1-RON; Towards Development of Antimalarial Drug Lead: Primary Screen). Settings: AlphaScreen AMA1-biotinylated RON2 peptide binding; activity change, negative = inhibition: at 58.2 µM (top of the series) unless noted.
How it was run: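 AMA1 (3D7) with his tag at 25 nM final met compounds first, then biotinylated RON2 peptide at 25 nM; detection used donor plus acceptor beads, 10 µg/mL apiece, read by AlphaScreen after 30 min at room temperature.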
Also: nearly all actives have a fitted effect of over 45% in size.
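For activity change, negative = inhibition in this document: 0% = vehicle wells and -100% = peptide control.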
Potency is read from the fitted curve at half-maximal effect; tags tell the direction and shape of the fitted curve.

Compound | Potency | activity change, negative = inhibition
COc1ccc(O)c(CN2CCN(CCc3ccccc3)C(CCO)C2)c1 (centres undefined) | inconclusive [inhibitor, full curve, poor fit] | –
Cc1c(C)n(CC(O)CNCCO)c2ccccc12 (centres undefined) | inconclusive [inhibitor, single point] | –
O=C(Nc1ccc(N2CCN(C(=O)c3cccs3)CC2)c(Cl)c1)c1cccnc1 | – | inactive: 0%
Nc1cccc(C(=O)Nc2ccccc2Cl)c1 | inconclusive [inhibitor, partial curve] | –
CN1CCc2nc(NC(=O)COc3ccc4ccccc4c3)sc2C1 | inconclusive [inhibitor, partial curve] | –
Cc1cccc(NC(=O)C2CCN(S(=O)(=O)c3c(C)noc3/C=C/c3ccco3)CC2)n1 | inconclusive [inhibitor, partial curve] | –
COc1ccccc1CN1CCN(C(=O)c2cccc3ccccc23)CC1 | inconclusive [inhibitor, single point] | –
c1ccc(-c2nc(-c3ccncc3)n[nH]2)nc1 | inconclusive [inhibitor, single point] | –
Fc1ccc(-c2ccc3c(c2)C2CC3CCN2Cc2ccc3c(c2)OCO3)cc1 (centres undefined) | inconclusive [inhibitor, partial curve] | –
COc1ccc(-c2nc3ccccc3n2OC(=O)N(C)C)cc1 | inconclusive [inhibitor, single point] | –
O=S(=O)(Nc1ccccc1N1CCCCC1)c1ccc(F)cc1 | inconclusive [inhibitor, partial curve] | –
CCO[C@@H]1OC(C(=O)N2CCOCC2)=C[C@H](C2CCCCC2)[C@H]1CCCO | – | inactive: -3.56%
O=C(N/N=C/c1ccc(O)c(O)c1)N/N=C/c1ccc(O)c(O)c1 | inconclusive [inhibitor, partial curve] | –
COc1cccc(C(=O)NC23CC4CC(CC(C4)C2)C3)c1 | – | inactive: 0%
N#C/C(=C\c1ccc[nH]1)Sc1nc2ccccc2s1 | inconclusive [inhibitor, single point] | –
O=C(NCc1cccs1)c1ccc2sc([C@@H]3O[C@H](CO)[C@H](O)[C@H](O)[C@H]3O)nc2c1 | – | inactive: -1.53%
CN(C)C(CNC(=O)c1cccc(S(=O)(=O)N2CCN(c3ccc(F)cc3)CC2)c1)c1ccccc1 (centres undefined) | inconclusive [inhibitor, partial curve] | –
C=CCSc1nnc(-c2cc3c(s2)-c2ccccc2CC3)o1 | – | inactive: 210%
Cc1cccc(OCC(=O)Nc2ccccc2N2CCCC2)c1C | inconclusive [inhibitor, partial curve] | –
Cc1cc(Cl)ccc1OCC(=O)NCCOc1nc(N2CCOCC2)nc(N2CCOCC2)n1 | inconclusive [inhibitor, single point] | –
CCN(CC)S(=O)(=O)c1cc(C(=O)Nc2cc(C)on2)ccc1Cl | – | inactive: -5.6%
CN(C)[C@@H]1C(=O)C(C(N)=O)=C(O)[C@@]2(O)C(=O)C3=C(O)c4c(O)cccc4[C@@](C)(O)C3C[C@@H]12 (some centres undefined) | inconclusive [inhibitor, partial curve] | –
CCN(CC)C(=O)[C@H]1CC(CC(=O)NC/C=C(\C)CCC=C(C)C)C(=O)N2CCc3c([nH]c4ccc(OC)cc34)[C@]12C (some centres undefined) | inconclusive [inhibitor, single point] | –

Compound | Potency | activity change, negative = inhibition
CC(C)(C)c1ccc(C(=O)N2CCN(S(=O)(=O)c3ccc(Br)s3)CC2)cc1 | – | inactive: -8.75%
CN(C)c1cccc(C(=O)N(Cc2ccccc2)Cc2ccccc2)c1 | inconclusive [inhibitor, partial curve] | –
C=CC(C)(C)c1c2occc2c(O)c2ccc(=O)oc12 | – | inactive: -7.15%
Cc1cc(C)n2c(Nc3ccc4c(c3)OCCO4)c(-c3ccccn3)nc2n1 | active: 8.91 µM | –
CCOC(=O)C(C(=O)OCC)C(C(=O)OCC)N1CCOCC1 (centres undefined) | – | inactive: 0.686%
COc1cccc(CN(C)C(=O)c2cccc(NC(=O)CC3SC(N4CCCCC4)=NC3=O)c2)c1OC (centres undefined) | – | inactive: -12.9%
CN(CCc1ccccc1)C(=O)c1ccc(NC(=O)Cc2ccc(NC(=O)C3CCN(C(=O)c4ccccc4)CC3)cc2)cc1 | inconclusive [inhibitor, partial curve] | –
COc1cc2c(cc1OC)C(C)N(CCN1C(=O)c3ccccc3C1=O)CC2 (centres undefined) | – | inactive: -8.82%
COc1ccc(N2C(=O)/C(=C/C=C/c3ccccc3[N+](=O)[O-])C(=O)NC2=S)cc1 | – | inactive: 48.7%
CC1=NOC(=O)/C1=C\c1ccc(-c2ccccc2Br)o1 | inconclusive [inhibitor, single point] | –
Cc1ccc(N2CCN(C3=NC(=O)/C(=C\c4cccs4)S3)CC2)cc1 | inconclusive [inhibitor, single point] | –
CN(C)c1ccc(NC(=O)CN2C(=O)CN=C(c3ccccc3)c3ccccc32)cc1 | inconclusive [inhibitor, partial curve] | –
COc1cccc(N/C(SCc2ccccc2Cl)=C(/C#N)C(=O)NCc2cccs2)c1 | inconclusive [inhibitor, partial curve] | –
Brc1cccc(OCCN2CCOCC2)c1 | inconclusive [inhibitor, partial curve] | –
O=C(c1ccc(-c2ccccc2)cc1)C1CCCN(C(=O)Cn2cncn2)C1 (centres undefined) | inconclusive [inhibitor, single point] | –
COc1cc(C(=O)Nc2ccc(S(=O)(=O)N(C)c3ccccc3)cc2)cc(OC)c1OC | – | inactive: 1.85%
S=C(c1ccc(-c2cc(Cl)ccc2Cl)o1)N1CCOCC1 | inconclusive [inhibitor, partial curve] | –
CCOc1ccc(C(=O)N/N=C/c2cccc3cccnc23)cc1 | inconclusive [inhibitor, single point] | –
CC(=O)Oc1cc(C(=O)OCC(=O)NC23CC4CC(CC(C4)C2)C3)cc(OC(C)=O)c1OC(C)=O | active: 20 µM | –
Cc1cc2cc(CNS(=O)(=O)c3ccccc3)ccc2n1C | inconclusive [inhibitor, single point] | –
COc1cc(-c2cc(C(=O)Nc3ccncc3)c3ccccc3n2)cc(OC)c1OC | – | inactive: 4.85%
c1ccc2c(c1)ncn2CCCCOc1ccc2c(c1)CCC2 | inconclusive [inhibitor, single point] | –
O=C(CSc1nnnn1C1CCCC1)Nc1ccc2c(c1)OCO2 | inconclusive [inhibitor, partial curve, poor fit] | –

Compound | Potency | activity change, negative = inhibition
Cc1cc(=O)[nH]c2nc3ccccc3n12 | – | inactive: -16.4%
C(=N\C(/N=C/c1ccco1)c1ccco1)/c1ccco1 | inconclusive [inhibitor, partial curve] | –
COc1ccc(C(=O)N/N=C/c2cccc3cccnc23)cc1 | inconclusive [inhibitor, single point] | –
Cc1ccc(N)c(C(=O)c2ccc(Br)cc2)c1 | active: 15.8 µM | –
CC(NC(=O)c1ccco1)c1nc(-c2ccc(C(C)(C)C)cc2)no1 (centres undefined) | – | inactive: -20.1%
CN(C)C(=O)CSc1cnc2ccccc2n1 | inconclusive [inhibitor, partial curve] | –
CC(Nc1cc(N2CCNCC2)ccc1[N+](=O)[O-])c1ccccc1 (centres undefined) | – | inconclusive: -30% [inhibitor]
COc1ccc(Nc2nc3ccccc3c(=O)s2)c(OC)c1 | – | inactive: 95.1%
O=C(O)C1CCCCC1C(=O)Nc1ccc(S(=O)(=O)N2CCOCC2)cc1 (centres undefined) | inconclusive [inhibitor, single point] | –
Nc1nonc1-n1nnc(C(=O)N/N=C/c2cccc(Cl)c2)c1CSc1ccccc1 | – | inconclusive: -9.52% [inhibitor]
CCOC(=O)c1cc2oc(C(c3nnnn3C3CCCCC3)N3CCOCC3)cc2[nH]1 (centres undefined) | inconclusive [inhibitor, full curve] | –
O=C(CN1CCCCC1)Nc1ccc(Br)cc1[N+](=O)[O-] | inconclusive [inhibitor, partial curve] | –
COC(=O)C1=C(C)N(Cc2ccc(C)cc2)C(=O)/C1=C\c1ccc(O)c(OC)c1 | inconclusive [inhibitor, single point] | –
Cc1c(Cl)ccc2c(C(=O)NCCN3CCCCC3)cc(-c3ccccn3)nc12 | – | inactive: 8%
CCOc1ccc(S(=O)(=O)Nc2ccc(C(=O)NCC(C)(C)N3CCOCC3)cc2)cc1 | inconclusive [inhibitor, single point] | –
COC(=O)C1=NNC2(c3ccc(C)cc3)C(=O)N(c3cccc(C)c3C)C(=O)C12 (centres undefined) | inconclusive [inhibitor, partial curve] | –
O=S(=O)(c1ccc2ccccc2c1)N1CCN(C2CCN(Cc3ccccc3)CC2)CC1 | inconclusive [inhibitor, partial curve] | –
CNC(=S)N1N=C(c2ccc(C)cc2)CC1c1cc(OC)ccc1OC (centres undefined) | inconclusive [inhibitor, partial curve] | –
C[C@H](O)[C@H](O)[C@H]1CNc2nc(N)[nH]c(=O)c2N1 | inconclusive [inhibitor, single point] | –
CCCNc1ccc(C(=O)OCC)cc1[N+](=O)[O-] | inconclusive [inhibitor, partial curve] | –
Nc1cnn(Cc2ccccc2F)c1 | inconclusive [inhibitor, single point] | –
CC(=O)c1cccc(NC(=O)COC(=O)c2n[nH]c3ccccc23)c1 | – | inactive: 5.81%
CNc1ccc(N=Nc2cccc3ncccc23)cc1 | inconclusive [inhibitor, partial curve] | –
